Data: publication PMC9911399, “Two distinct binding modes provide the RNA-binding protein RbFox with extraordinary sequence specificity”
Substitutions are numbered along the chain they refer to; changes in the protein carry UniProt numbers. The list shows a part of the results.

T1: RBFOX1 RRM (Homo sapiens, UniProt Q9NWB1 109-208)
T1 sequence: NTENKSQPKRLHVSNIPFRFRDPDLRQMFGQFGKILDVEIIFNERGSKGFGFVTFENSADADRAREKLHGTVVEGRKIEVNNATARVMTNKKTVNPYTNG

B1: GCUGGUA (DNA:RNA)
RNA: GGGAGACCGGAAUUCAGAUUGUCCGCUGGUAUUAAAUCCCGUCGUAGCCACCA
DNA 1: CAATCTGAATTCCGGTCTCCC
DNA 2: TGGTGGCTACGACGGGATT
B2: UAACGUU (DNA:RNA)
RNA: B1 RNA with G25U, C26A, U27A, G28C, A31U
DNA 1: CAATCTGAATTCCGGTCTCCC
DNA 2: TGGTGGCTACGACGGGATT
B3: GGCUACU (DNA:RNA)
RNA: B1 RNA with C26G, U27C, G28U, G29A, U30C, A31U
DNA 1: CAATCTGAATTCCGGTCTCCC
DNA 2: TGGTGGCTACGACGGGATT
B4: ACACCUU (DNA:RNA)
RNA: B1 RNA with G25A, U27A, G28C, G29C, A31U
DNA 1: CAATCTGAATTCCGGTCTCCC
DNA 2: TGGTGGCTACGACGGGATT
B5: UCGCCGA (DNA:RNA)
RNA: B1 RNA with G25U, U27G, G28C, G29C, U30G
DNA 1: CAATCTGAATTCCGGTCTCCC
DNA 2: TGGTGGCTACGACGGGATT
B6: UAUCGGC (DNA:RNA)
RNA: B1 RNA with G25U, C26A, G28C, U30G, A31C
DNA 1: CAATCTGAATTCCGGTCTCCC
DNA 2: TGGTGGCTACGACGGGATT
B7: UACAGUC (DNA:RNA)
RNA: B1 RNA with G25U, C26A, U27C, G28A, A31C
DNA 1: CAATCTGAATTCCGGTCTCCC
DNA 2: TGGTGGCTACGACGGGATT
B8: UAGUCUA (DNA:RNA)
RNA: B1 RNA with G25U, C26A, U27G, G28U, G29C
DNA 1: CAATCTGAATTCCGGTCTCCC
DNA 2: TGGTGGCTACGACGGGATT
B9: GUACGCG (DNA:RNA)
RNA: B1 RNA with C26U, U27A, G28C, U30C, A31G
DNA 1: CAATCTGAATTCCGGTCTCCC
DNA 2: TGGTGGCTACGACGGGATT
B10: AUGAGAC (DNA:RNA)
RNA: B1 RNA with G25A, C26U, U27G, G28A, U30A, A31C
DNA 1: CAATCTGAATTCCGGTCTCCC
DNA 2: TGGTGGCTACGACGGGATT
B11: GUAUCCA (DNA:RNA)
RNA: B1 RNA with C26U, U27A, G28U, G29C, U30C
DNA 1: CAATCTGAATTCCGGTCTCCC
DNA 2: TGGTGGCTACGACGGGATT
B12: ACGUUCU (DNA:RNA)
RNA: B1 RNA with G25A, U27G, G28U, G29U, U30C, A31U
DNA 1: CAATCTGAATTCCGGTCTCCC
DNA 2: TGGTGGCTACGACGGGATT
B13: CAGUCGG (DNA:RNA)
RNA: GGGAGACCGGAAUUCAGAUUGUCCCAGUCGGUUAAAUCCCGUCGUAGCCACCA
DNA 1: CAATCTGAATTCCGGTCTCCC
DNA 2: TGGTGGCTACGACGGGATT
B14: GCUAGGA (DNA:RNA)
RNA: B1 RNA with G28A, U30G
DNA 1: CAATCTGAATTCCGGTCTCCC
DNA 2: TGGTGGCTACGACGGGATT
B15: AUACCGC (DNA:RNA)
RNA: B13 RNA with C25A, A26U, G27A, U28C, G31C
DNA 1: CAATCTGAATTCCGGTCTCCC
DNA 2: TGGTGGCTACGACGGGATT
B16: UCCAGGG (DNA:RNA)
RNA: B13 RNA with C25U, A26C, G27C, U28A, C29G
DNA 1: CAATCTGAATTCCGGTCTCCC
DNA 2: TGGTGGCTACGACGGGATT
B17: UUGUCCC (DNA:RNA)
RNA: B13 RNA with C25U, A26U, G30C, G31C
DNA 1: CAATCTGAATTCCGGTCTCCC
DNA 2: TGGTGGCTACGACGGGATT
B18: AGGGGAG (DNA:RNA)
RNA: B13 RNA with C25A, A26G, U28G, C29G, G30A
DNA 1: CAATCTGAATTCCGGTCTCCC
DNA 2: TGGTGGCTACGACGGGATT
B19: UUCCUCU (DNA:RNA)
RNA: GGGAGACCGGAAUUCAGAUUGUCCUUCCUCUUUAAAUCCCGUCGUAGCCACCA
DNA 1: CAATCTGAATTCCGGTCTCCC
DNA 2: TGGTGGCTACGACGGGATT
B20: AGUUCAA (DNA:RNA)
RNA: B13 RNA with C25A, A26G, G27U, G30A, G31A
DNA 1: CAATCTGAATTCCGGTCTCCC
DNA 2: TGGTGGCTACGACGGGATT

These binders were tested against T1, RBFOX1 RRM (assay: EMSA; HiTS-Eq, 1 nM pool, 10 min; buffer printed only for the single-RNA assays: 10 mM Tris pH 7.5, 150 mM NaCl, 3.4 mM EDTA, 0.001% NP-40, 30 C). Details: tags: His6 N-terminal (pET28a); label: 5' 32P.
Summary of the method: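 Purified RbFox RRM (wild type or mutant) was equilibrated for 10 min in 50 µL with 1 nM of a 5′-radiolabelled pool of RNA with 7 randomized nucleotides, its flanks annealed to DNA oligonucleotides, across increasing protein concentrations. Free RNA was separated by 8% native PAGE, excised, reverse-transcribed, PCR-barcoded and sequenced on an Illumina HiSeq 2500. Relative association constants came from read-count changes of each variant against the control reaction, normalised to the cognate motif.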

Binder	binding signal
B1	0.0214 KA relative to UGCAUGU
B2	0.00814 KA relative to UGCAUGU
B3	0.0114 KA relative to UGCAUGU
B4	0.000558 KA relative to UGCAUGU
B5	0.0122 KA relative to UGCAUGU
B6	0.0104 KA relative to UGCAUGU
B7	0.00675 KA relative to UGCAUGU
B8	0.00586 KA relative to UGCAUGU
B9	0.0105 KA relative to UGCAUGU
B10	0.00702 KA relative to UGCAUGU
B11	0.00724 KA relative to UGCAUGU
B12	0.00892 KA relative to UGCAUGU
B13	0.0104 KA relative to UGCAUGU
B14	0.00693 KA relative to UGCAUGU
B15	0.00238 KA relative to UGCAUGU
B16	0.00615 KA relative to UGCAUGU
B17	0.0102 KA relative to UGCAUGU
B18	0.0135 KA relative to UGCAUGU
B19	0.0101 KA relative to UGCAUGU
B20	0.00452 KA relative to UGCAUGU
